{
  "source": "the supplement of paper PMC8728848",
  "binders": {"B1": {"name": "Nc3LysM (protein)", "chain": "QFTVPPDTTAEPNTIKTCTWWHVAGSGDSCTSIASTYGITSEQFARWDMETTDSPKNPSVATACKLTVGNSYCIENNFGQDDPPTPSISSSTLIGTATTSTTASTTTGNGISTPTPIQEGMETATTTTSSGNGITTPTPTQAGMETVGNCDRFHLVKSGDQCGTIASTYGITLANFYSWNPAVGTSCQSLWLDTYVCVRTIGFVPPKTTTTTTKKPTSTTSAGGVATPTPTQPGMETVSGCKKFHKGRGNVSTVASGDQCGTIATRYGISLANFYSWNPAVGSSCQTLWLDYYVCVGR"}},
  "assay_in_all_cases": "glycan array binding signal (z-score within array); higher = stronger binding",
  "conditions_in_all_cases": "glycan notation: IUPAC condensed, linker removed",
  "key": {"Neu5Ac(a2-8)Neu5Ac": {"target": "Neu5Ac(a2-8)Neu5Ac", "method_in_brief": "(§1)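 Arrays were curated from the Consortium for Functional Glycomics database, 3228 in total, and kept only where the protein sequence was available. Binding is expressed as a within-array Z-score. This score was averaged across arrays of the same protein sequence at different concentrations or buffers and across linkers, and negative values can be read as non-binding.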"}, "[1]": {"target": "Neu5Ac(a2-8)Neu5Ac(a2-3)Gal(b1-3)GalNAc(b1-4)[Neu5Ac(a2-3)]Gal(b1-4)Glc", "method_in_brief": "as §1"}, "[2]": {"target": "Neu5Ac(a2-8)Neu5Ac(a2-3)Gal(b1-3)GalNAc(b1-4)[Neu5Ac(a2-8)Neu5Ac(a2-3)]Gal(b1-4)Glc", "method_in_brief": "as §1"}, "[3]": {"target": "Neu5Ac(a2-8)Neu5Ac(a2-3)Gal(b1-4)Glc", "method_in_brief": "as §1"}, "[4]": {"target": "Neu5Ac(a2-8)Neu5Ac(a2-3)Gal(b1-4)GlcNAc", "method_in_brief": "as §1"}, "[5]": {"target": "Neu5Ac(a2-8)Neu5Ac(a2-3)[Gal(b1-3)GalNAc(b1-4)]Gal(b1-4)Glc", "method_in_brief": "as §1"}, "[6]": {"target": "Neu5Ac(a2-8)Neu5Ac(a2-3)[GalNAc(b1-4)]Gal(b1-4)Glc", "method_in_brief": "as §1"}, "[7]": {"target": "Neu5Ac(a2-8)Neu5Ac(a2-8)Neu5Ac", "method_in_brief": "as §1"}, "[8]": {"target": "Neu5Ac(a2-8)Neu5Ac(a2-8)Neu5Ac(a2-3)Gal(b1-4)Glc", "method_in_brief": "as §1"}, "[9]": {"target": "Neu5Ac(a2-8)Neu5Ac(a2-8)Neu5Ac(a2-3)[Gal(b1-3)GalNAc(b1-4)]Gal(b1-4)Glc", "method_in_brief": "as §1"}, "[10]": {"target": "Neu5Ac(a2-8)Neu5Ac(a2-8)Neu5Ac(a2-3)[GalNAc(b1-4)]Gal(b1-4)Glc", "method_in_brief": "as §1"}, "[11]": {"target": "Neu5Ac(a2-8)Neu5Ac(a2-8)Neu5Ac(a2-8)Neu5Ac(a2-3)[GalNAc(b1-4)]Gal(b1-4)Glc", "method_in_brief": "as §1"}, "[12]": {"target": "Neu5Ac(a2-8)Neu5Gc(a2-3)Gal(b1-4)GlcNAc", "method_in_brief": "as §1"}, "[13]": {"target": "Neu5Ac(b2-6)Gal(b1-4)GlcNAc", "method_in_brief": "as §1"}, "Neu5Ac(b2-6)GalNAc": {"target": "Neu5Ac(b2-6)GalNAc", "method_in_brief": "as §1"}, "[14]": {"target": "Neu5Ac9Ac(a2-3)Gal(b1-3)GlcNAc", "method_in_brief": "as §1"}, "[15]": {"target": "Neu5Ac9Ac(a2-3)Gal(b1-4)GlcNAc", "method_in_brief": "as §1"}, "[16]": {"target": "Neu5Ac9Ac(a2-6)Gal(b1-4)GlcNAc", "method_in_brief": "as §1"}, "[17]": {"target": "Neu5Gc(a2-3)Gal(b1-3)GlcNAc", "method_in_brief": "as §1"}, "[18]": {"target": "Neu5Gc(a2-3)Gal(b1-3)[Fuc(a1-4)]GlcNAc", "method_in_brief": "as §1"}, "Neu5Gc(a2-3)Gal(b1-4)Glc": {"target": "Neu5Gc(a2-3)Gal(b1-4)Glc", "method_in_brief": "as §1"}, "[19]": {"target": "Neu5Gc(a2-3)Gal(b1-4)GlcNAc", "method_in_brief": "as §1"}, "[20]": {"target": "Neu5Gc(a2-3)Gal(b1-4)GlcNAc(b1-3)Gal(b1-4)GlcNAc(b1-2)Man(a1-3)[Neu5Gc(a2-3)Gal(b1-4)GlcNAc(b1-3)Gal(b1-4)GlcNAc(b1-2)Man(a1-6)]Man(b1-4)GlcNAc(b1-4)GlcNAc", "method_in_brief": "as §1"}, "[21]": {"target": "Neu5Gc(a2-3)Gal(b1-4)[Fuc(a1-3)]GlcNAc", "method_in_brief": "as §1"}, "[22]": {"target": "Neu5Gc(a2-6)Gal(b1-4)GlcNAc", "method_in_brief": "as §1"}, "Neu5Gc(a2-6)GalNAc": {"target": "Neu5Gc(a2-6)GalNAc", "method_in_brief": "as §1"}, "[23]": {"target": "Neu5Gc(a2-8)Neu5Ac(a2-3)Gal(b1-4)GlcNAc", "method_in_brief": "as §1"}, "[24]": {"target": "Neu5Gc(a2-8)Neu5Gc(a2-3)Gal(b1-4)GlcNAc", "method_in_brief": "as §1"}, "[25]": {"target": "Neu5Gc(a2-8)Neu5Gc(a2-3)Gal(b1-4)GlcNAc(b1-3)Gal(b1-4)GlcNAc", "method_in_brief": "as §1"}, "[26]": {"target": "Neu5Gc(a2-8)Neu5Gc(a2-6)Gal(b1-4)GlcNAc", "method_in_brief": "as §1"}, "[27]": {"target": "Neu5Gc(b2-6)Gal(b1-4)GlcNAc", "method_in_brief": "as §1"}},
  "note": "This is one part of the list.",
  "data": [
    {"binder": "B1", "values": [
      {"measurement": "glycan array binding signal (z-score)", "setting": "Neu5Ac(a2-8)Neu5Ac", "result": -0.235},
      {"measurement": "glycan array binding signal (z-score)", "setting": "[1]", "result": 0.043},
      {"measurement": "glycan array binding signal (z-score)", "setting": "[2]", "result": -0.231},
      {"measurement": "glycan array binding signal (z-score)", "setting": "[3]", "result": -0.346},
      {"measurement": "glycan array binding signal (z-score)", "setting": "[4]", "result": 0.015},
      {"measurement": "glycan array binding signal (z-score)", "setting": "[5]", "result": -0.137},
      {"measurement": "glycan array binding signal (z-score)", "setting": "[6]", "result": -0.148},
      {"measurement": "glycan array binding signal (z-score)", "setting": "[7]", "result": -0.093},
      {"measurement": "glycan array binding signal (z-score)", "setting": "[8]", "result": -0.139},
      {"measurement": "glycan array binding signal (z-score)", "setting": "[9]", "result": 0.394},
      {"measurement": "glycan array binding signal (z-score)", "setting": "[10]", "result": -0.059},
      {"measurement": "glycan array binding signal (z-score)", "setting": "[11]", "result": 0.029},
      {"measurement": "glycan array binding signal (z-score)", "setting": "[12]", "result": -0.138},
      {"measurement": "glycan array binding signal (z-score)", "setting": "[13]", "result": -0.191},
      {"measurement": "glycan array binding signal (z-score)", "setting": "Neu5Ac(b2-6)GalNAc", "result": -0.031},
      {"measurement": "glycan array binding signal (z-score)", "setting": "[14]", "result": -0.247},
      {"measurement": "glycan array binding signal (z-score)", "setting": "[15]", "result": 0.103},
      {"measurement": "glycan array binding signal (z-score)", "setting": "[16]", "result": -0.13},
      {"measurement": "glycan array binding signal (z-score)", "setting": "[17]", "result": 0.134},
      {"measurement": "glycan array binding signal (z-score)", "setting": "[18]", "result": -0.068},
      {"measurement": "glycan array binding signal (z-score)", "setting": "Neu5Gc(a2-3)Gal(b1-4)Glc", "result": -0.021},
      {"measurement": "glycan array binding signal (z-score)", "setting": "[19]", "result": -0.072},
      {"measurement": "glycan array binding signal (z-score)", "setting": "[20]", "result": -0.107},
      {"measurement": "glycan array binding signal (z-score)", "setting": "[21]", "result": -0.048},
      {"measurement": "glycan array binding signal (z-score)", "setting": "[22]", "result": -0.16},
      {"measurement": "glycan array binding signal (z-score)", "setting": "Neu5Gc(a2-6)GalNAc", "result": -0.071},
      {"measurement": "glycan array binding signal (z-score)", "setting": "[23]", "result": -0.183},
      {"measurement": "glycan array binding signal (z-score)", "setting": "[24]", "result": 0.045},
      {"measurement": "glycan array binding signal (z-score)", "setting": "[25]", "result": -0.146},
      {"measurement": "glycan array binding signal (z-score)", "setting": "[26]", "result": -0.131},
      {"measurement": "glycan array binding signal (z-score)", "setting": "[27]", "result": -0.195}
    ]}
  ]
}
